Test results reported in patent EP0821003B1, “PEPTIDES AND REMEDY FOR AUTOIMMUNE DISEASES COMPRISING THE SAME” (Aventis Pharma Ltd., priority 1995, dated 2003).
Where two headings read alike, the source gives them in different places. No end group written: not given here.

Tested on: rat carrageenin-induced paw edema model
Experimental: To physiological saline, λ-carrageenin ("PICNIN-A", Zushi Chemical Co.) was added at the final concentration of 1 w/v%, and it was heated in a boiling water bath to dissolve l-carrageenin completely. The resulting solution was then allowed to stand at room temperature. Before the experiment, the solution was dissolved completely by heating in a boiling water bath and was allowed to stand in a water bath of about 60íC until administration. Immediately after 50 µl of Peptide (I) of the present invention or physiological saline (non-administered group) were administered subcutaneously to the left leg of Splague-Dawley rats (6 weeks old, male), 50 µl of the 1% carrageenin solution were administered to the same site. The paw volume was measured using plethysmometer (product of BM Instrument Co.) every one hour for 5 hours after carrageenin administration. Incidentally, each group consisted of 10 rats and Dunnet ? s two tail method was used for statistical analysis.

With AKLTFGKGT [Peptide (I)] the “Suppressive effect on edema (%)” value (0.2 µg/site subcutaneously, 1 hour after carrageenin) was 2.3%, the “Suppressive effect on edema (%)” value (0.2 µg/site subcutaneously, 2 hours after carrageenin) was 3.9% and the “Suppressive effect on edema (%)” value (0.2 µg/site subcutaneously, 5 hours after carrageenin) was 4.8%. The onset of edema (10 µg/site group, five hours after carrageenin) was “tendency to suppress the edema onset was observed”, the onset of edema (10 µg/site group, two hours on and after carrageenin) was “suppressed two hours on and after the administration of carrageenin with a significant difference of 5%” and the “Suppressive effect on edema (%)” value (10 µg/site subcutaneously, 1 hour after carrageenin) was 30.2%. For the same sequence, the “Suppressive effect on edema (%)” value (10 µg/site subcutaneously, 2 hours after carrageenin) was 37.3%, the “Suppressive effect on edema (%)” value (10 µg/site subcutaneously, 5 hours after carrageenin) was 27.5% and the onset of edema (one hour after the administration of carrageenin) was “tended to be suppressed”.
